Where no end group is shown, it is not given here.
Tested on: RAW 264.7 (Mouse leukaemic monocyte macrophage cell line) cells
Assay: Phagocytosis assay (Fluorescein-labeled Escherichia coli, flow cytometry)
Details: 10 micrograms per ml, 30 min preincubation, 60 min ingestion

Gly-Trp-Thr-Leu-Asn-Ser-Ala-Gly-Tyr-Leu-Leu-Gly-Pro-His-Ala-Val-Gly-Asn-His-Arg-Ser-Phe-Ser-Asp-Lys-Asn-Gly-Leu-Thr-Ser-OH [peptide 1]
increase on the phagocytic activity of murine macrophages: 22.9%

Ile-Tyr-Leu-Gly-Gly-Pro-Phe-Ser-Pro-Asn-Val-Leu-OH (IYLGGPFSPNVL-OH) [peptide 2]
increase on the phagocytic activity of murine macrophages: 51.4%

Reference: patent US20100204114A1, “USE OF A GALANIN PEPTIDE AS A THERAPEUTIC AGENT” (priority 2007, published 2010)
